Measurements reported in PubChem BioAssay AID504333 (National Center for Advancing Translational Sciences (NCATS), 2011).
Out of some 360,000 compounds screened, about 16,000 (4.4%) were called active. Inconclusive results, whose numbers are uncertain, are shown with a selection of clear calls. Calls come from the whole dose curve; as a rule, active = well fitted inhibition curve with a large enough effect; inconclusive = small, poorly fitted or top-dose-only effect; inactive = no such curve, though single readings can be large or run the other way. Where the call is inconclusive, the potency comes from a doubtful curve fit.

Target: Bromodomain adjacent to zinc finger domain protein 2B (Homo sapiens) (UniProt Q9UIF8)
Experiment: qHTS Assay for Inhibitors of BAZ2B; note: nearly all actives have a fitted effect of over 60% in size
Details: AlphaScreen BAZ2B-H3K14Ac peptide displacement; activity change, negative = inhibition: at 114 µM (top of the series)
Procedure, shortened: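 Protein-peptide AlphaScreen: BAZ2B 50 nM, b-H3K14Ac 50 nM, 1x PBS pH 7.4 + 0.01% Tween-20. Preincubation 30 min RT; cpd 30 min RT (top 110 uM); beads 20 min RT, light-protected.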
% is set by controls: 0 for no effect and ±100 for the full control effect; potency is the fitted concentration of half-maximal effect; tags give direction and shape of the fitted curve.

Chain of UniProt Q9UIF8 (Q9UIF8 whole entry, looked up, the tested form may be a part): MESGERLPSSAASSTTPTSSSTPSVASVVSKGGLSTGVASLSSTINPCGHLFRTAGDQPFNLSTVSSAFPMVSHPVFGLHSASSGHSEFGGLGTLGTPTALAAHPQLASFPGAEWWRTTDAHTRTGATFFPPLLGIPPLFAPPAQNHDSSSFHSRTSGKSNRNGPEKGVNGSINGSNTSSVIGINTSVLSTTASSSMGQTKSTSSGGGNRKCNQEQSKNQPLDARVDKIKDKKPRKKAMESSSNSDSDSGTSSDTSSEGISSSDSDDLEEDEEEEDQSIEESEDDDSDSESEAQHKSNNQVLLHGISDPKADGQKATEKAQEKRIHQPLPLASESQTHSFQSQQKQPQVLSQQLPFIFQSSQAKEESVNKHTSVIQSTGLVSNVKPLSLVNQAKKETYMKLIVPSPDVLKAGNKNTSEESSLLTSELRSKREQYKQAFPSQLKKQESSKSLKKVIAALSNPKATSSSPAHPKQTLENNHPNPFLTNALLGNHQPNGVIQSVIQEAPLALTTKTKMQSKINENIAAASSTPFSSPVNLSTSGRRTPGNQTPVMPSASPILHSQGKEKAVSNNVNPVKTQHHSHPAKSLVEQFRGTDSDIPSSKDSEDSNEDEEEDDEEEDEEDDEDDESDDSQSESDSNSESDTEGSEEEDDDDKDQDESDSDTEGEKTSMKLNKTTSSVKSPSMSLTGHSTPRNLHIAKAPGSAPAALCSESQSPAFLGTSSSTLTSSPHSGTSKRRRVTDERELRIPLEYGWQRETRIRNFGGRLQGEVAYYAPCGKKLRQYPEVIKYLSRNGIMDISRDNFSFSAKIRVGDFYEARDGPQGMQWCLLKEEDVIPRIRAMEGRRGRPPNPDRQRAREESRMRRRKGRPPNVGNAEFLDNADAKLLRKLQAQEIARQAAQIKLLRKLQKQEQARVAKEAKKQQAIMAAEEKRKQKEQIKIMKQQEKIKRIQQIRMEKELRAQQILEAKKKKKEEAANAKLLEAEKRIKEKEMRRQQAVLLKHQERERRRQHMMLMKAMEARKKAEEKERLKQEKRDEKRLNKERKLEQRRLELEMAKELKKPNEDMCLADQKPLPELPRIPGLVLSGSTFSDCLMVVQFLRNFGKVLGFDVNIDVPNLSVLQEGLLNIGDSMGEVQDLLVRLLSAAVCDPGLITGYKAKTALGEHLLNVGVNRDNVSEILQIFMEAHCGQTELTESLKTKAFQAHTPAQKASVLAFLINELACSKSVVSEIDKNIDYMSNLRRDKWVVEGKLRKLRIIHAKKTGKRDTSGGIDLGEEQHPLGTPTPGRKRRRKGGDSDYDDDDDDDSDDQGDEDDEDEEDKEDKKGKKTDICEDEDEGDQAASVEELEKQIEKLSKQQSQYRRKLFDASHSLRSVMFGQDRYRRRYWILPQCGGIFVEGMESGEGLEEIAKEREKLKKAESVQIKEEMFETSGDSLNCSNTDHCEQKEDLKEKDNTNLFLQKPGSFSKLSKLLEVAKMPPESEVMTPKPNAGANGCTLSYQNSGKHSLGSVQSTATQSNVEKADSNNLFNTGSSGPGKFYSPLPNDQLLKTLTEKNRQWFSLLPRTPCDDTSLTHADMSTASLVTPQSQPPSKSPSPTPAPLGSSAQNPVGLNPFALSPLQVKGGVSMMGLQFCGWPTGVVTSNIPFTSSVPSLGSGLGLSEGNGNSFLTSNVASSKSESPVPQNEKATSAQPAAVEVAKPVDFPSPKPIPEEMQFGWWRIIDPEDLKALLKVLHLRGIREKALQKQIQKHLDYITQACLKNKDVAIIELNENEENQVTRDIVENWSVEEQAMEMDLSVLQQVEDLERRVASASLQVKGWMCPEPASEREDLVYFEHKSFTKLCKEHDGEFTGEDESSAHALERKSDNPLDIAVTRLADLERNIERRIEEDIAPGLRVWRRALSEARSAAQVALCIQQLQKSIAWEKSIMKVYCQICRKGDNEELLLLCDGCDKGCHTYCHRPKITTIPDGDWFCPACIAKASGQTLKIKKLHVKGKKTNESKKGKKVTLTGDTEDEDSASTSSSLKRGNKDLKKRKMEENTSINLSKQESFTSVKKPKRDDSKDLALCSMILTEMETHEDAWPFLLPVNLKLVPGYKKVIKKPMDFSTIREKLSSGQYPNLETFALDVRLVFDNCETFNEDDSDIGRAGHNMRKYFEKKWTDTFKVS

Compound	Potency	activity change, negative = inhibition
CCOC(=O)Cc1csc(NC(=O)c2ccc(Br)cc2)n1	inconclusive: 100 µM [inhibitor, single point]	
O=C(N/N=C/c1ccc(O)c(O)c1)c1ccc(CSc2cccc3cccnc23)cc1	inconclusive: 79.4 µM [inhibitor, single point]	
Cc1sc2ncnc(N/N=C/c3cccc(O)c3)c2c1C	inconclusive: 39.8 µM [inhibitor, partial curve]	
Cc1cc(=O)n(C)c(=O)n1CCCCCN1CCCC1	active: 50.1 µM	
CCOC(=O)C1=C(N)Oc2ccc3ccccc3c2C1c1cccc(O)c1 (stereo not drawn)	inconclusive: 50.1 µM [inhibitor, partial curve]	
O=[N+]([O-])c1ccc(C[n+]2cc(-c3ccc(Cl)c(Cl)c3)n3c2CCCCC3)cc1	inconclusive: 79.4 µM [inhibitor, single point]	
CCn1c(SCC(=O)c2[nH]c(C)c(C(C)=O)c2C)nnc1-c1ccncc1	inconclusive: 89.1 µM [inhibitor, single point]	
O=C(O)c1ccc(Nc2nc(-c3ccccc3)c3cc(Br)ccc3n2)cc1	inconclusive: 79.4 µM [inhibitor, single point]	
CCOC(=O)C1CCN(Cc2ccc(-c3ccccc3)cc2)CC1	inconclusive: 79.4 µM [inhibitor, single point]	
N#CC1=C(N)SC(N)=C(C#N)C1c1ccnc2ccccc12	inconclusive: 89.1 µM [inhibitor, single point]	
O=[N+]([O-])c1ccc2c(c1N1CCCCC1)=NC1(CCCCC1)[N+]=2[O-]	active: 35.5 µM	
CC(C)c1ccc(NC(=O)C(c2ccccc2)N(Cc2ccco2)C(=O)CC2NC(=O)NC2=O)cc1 (stereo not drawn)	inconclusive: 44.7 µM [inhibitor, partial curve]	
CCC(C)(C)C(=O)Nc1ncc(S(=O)(=O)c2ccc([N+](=O)[O-])cc2)s1	inconclusive: 35.5 µM [inhibitor, partial curve]	
CCN(CC)c1ccc(NC(=O)Nc2cccc3ccccc23)cc1	inconclusive: 44.7 µM [inhibitor, partial curve]	
Cc1ccc(C)c(N2N=C(C(=O)Nc3ccccc3N3CCOCC3)CCC2=O)c1	inconclusive: 89.1 µM [inhibitor, single point]	
O=C(CCCc1ccccc1)Nc1ccnn1C1CCN(Cc2ccccn2)CC1	inconclusive: 79.4 µM [inhibitor, single point]	
CCOC(=O)C1CCN(C2=C(NS(=O)(=O)c3ccc(Br)cc3)C(=O)c3ccccc3C2=O)CC1	active: 5.62 µM	
COc1ccc(OC)c(NC(=O)CCN2CCN(c3ccccc3F)CC2)c1	inconclusive: 31.6 µM [inhibitor, single point]	
CC(C)c1ccc(CNc2ncc(Br)cn2)cc1		inactive: 4.94%
CCOC(=O)c1nc2cc3n(c(CC(C)C)c-2c1C)CC(C)=C3C	inconclusive: 89.1 µM [inhibitor, single point]	
CCN1CCN(S(=O)(=O)c2ccc(C(C)(C)C)cc2)CC1		inactive: -4.53%
Cn1c(=O)c2c(nc(SCC(=O)NCc3ccco3)n2C)n(C)c1=O		inactive: -5.8%
O=C(Nc1ccnn1C1CCN(C/C=C/c2ccccc2)CC1)C1CCCC1	inconclusive: 79.4 µM [inhibitor, single point]	

Compound	Potency	activity change, negative = inhibition
Cc1nn(-c2ccccc2)c2c1N(CC(=O)NCc1ccc(N(C)C)cc1)C(=O)CS2	inconclusive: 89.1 µM [inhibitor, single point]	
C=CCNC(=O)C(C#N)c1nc2ccccc2nc1N1CCCCCC1 (stereo not drawn)	inconclusive: 89.1 µM [inhibitor, single point]	
CC(NC(=O)c1cc(S(=O)(=O)N2CCCC2)ccc1Cl)c1ccccn1 (stereo not drawn)		inactive: 4.01%
CCc1ccccc1N(CC(=O)Nc1cccnc1)S(=O)(=O)c1ccccc1		inactive: -10.9%
O=C(CC12CC3CC(CC(Br)(C3)C1)C2)NC1=NCCS1	inconclusive: 50.1 µM [inhibitor, partial curve]	
Cc1cc(C)cc(NC(=O)C2CCN(c3cc(C)nc4c(-c5ccc(Cl)cc5)c(C)nn34)CC2)c1		inactive: -5.34%
CC1CC(C)CN(c2oc(Cc3ccccc3)nc2C#N)C1 (stereo not drawn)	active: 14.1 µM	
COc1cc2c(cc1OC)C(COc1ccc(F)cc1)N(C(=O)c1ccccc1F)CC2 (stereo not drawn)	inconclusive: 20 µM [inhibitor, full curve]	
O=C1NN(c2ccccc2)C(=O)/C1=C/c1ccc(-c2cccc(C(=O)O)c2)o1	active: 44.7 µM	
COc1cc(CN2CCCC(C(=O)c3ccccc3SC)C2)cc(OC)c1 (stereo not drawn)	inconclusive: 89.1 µM [inhibitor, partial curve]	
N#CC1=C(N)SC(N)=C(C#N)C1c1ccoc1	active: 25.1 µM	
CC(=O)c1ccc(C(=O)N(Cc2cccnc2)c2nc3c(Cl)cccc3s2)cc1	inconclusive: 2.82 µM [inhibitor, full curve, poor fit]	
CCN(CC)c1ccc(CNc2ccc(Br)cn2)cc1	active: 22.4 µM	
O=c1c2c([nH]n1-c1ccccc1)CCSC2	inconclusive: 79.4 µM [inhibitor, single point]	
CCN1/C(=C2\C(=O)N(c3ccccc3)N=C2C)C=Cc2cc(C)ccc21	active: 56.2 µM	
O=C(/C=C/c1ccco1)Oc1cccc2cccnc12	active: 44.7 µM	
O=C(N/N=C/c1cc(Br)ccc1O)c1ccccc1Cl	inconclusive: 89.1 µM [inhibitor, single point]	
COc1ccc(CNc2ncc(-c3cccc([N+](=O)[O-])c3)n2C)c(OC)c1OC	active: 50.1 µM	
CCN1C(C(=O)c2ccccc2)=C(OC(=O)COc2ccccc2)c2ccccc2S1(=O)=O	inconclusive: 89.1 µM [inhibitor, single point]	
CCn1c(SCC(=O)N=Nc2c(O)[nH]c3ccccc23)nc2ccccc21	inconclusive: 56.2 µM [inhibitor, single point]	
COc1ccc(S(=O)(=O)Oc2ccc3c(c2)O/C(=C\c2cccnc2)C3=O)cc1	inconclusive: 70.8 µM [inhibitor, single point]	
CC1(C)C/C(=N\NC(=S)Nc2ccccc2F)c2cc(O)ccc2O1	inconclusive: 14.1 µM [inhibitor, full curve]	
C/C=C/COC(=O)c1[nH]c2c(c1C)C(=O)CC(c1ccc(N(C)C)cc1)C2 (stereo not drawn)	inconclusive: 44.7 µM [inhibitor, partial curve]	

Compound	Potency	activity change, negative = inhibition
CCC(=O)Nc1ccc(N2CCCCC2)c(C(=O)Nc2ccccc2C)c1	inconclusive: 89.1 µM [inhibitor, single point]	
COc1ccc(OC)c(NC(=O)CN(C)CC(=O)Nc2ccccc2Br)c1	active: 44.7 µM	
C#CCOCCOCCOCCNc1nc(N2CCN(C(=O)CCCCCCCCCCNC(=O)[C@H](CO)n3cc(CCCSC)nn3)CC2)nc(N2CCN(C(=O)CCCCCCCCCCNC(=O)[C@H](CCCCN)n3cc(C[C@@H](C)CC)nn3)CC2)n1	inconclusive: 44.7 µM [inhibitor, partial curve]	
CCn1ccnc1CNC(=O)CC1C(=O)NCCN1Cc1ccccc1F (stereo not drawn)		inactive: -9.94%
CCOC(=O)c1cc(-c2ccccc2)sc1NC(=O)C(C)Sc1nnc(N)s1 (stereo not drawn)	inconclusive: 89.1 µM [inhibitor, single point]	
COCCCNS(=O)(=O)c1ccc(N2CCCCS2(=O)=O)cc1		inactive: -0.608%
CCCCc1nc(NCCNC(=O)c2ccco2)c(C#N)c2c1CSC(C)(C)C2	inconclusive: 89.1 µM [inhibitor, single point]	
CCOCCCn1c(=S)[nH]c2cc(C(=O)NCCOC)ccc2c1=O	inconclusive: 50.1 µM [inhibitor, partial curve]	
Cc1ccc(NC(=O)CN2C(=O)CSc3ccc(S(=O)(=O)N4CCCC4)cc32)c(C)c1	inconclusive: 89.1 µM [inhibitor, single point]	
S=C(NC1CCCC1)N1CCN(c2ncccn2)CC1	inconclusive: 89.1 µM [inhibitor, single point]	
COc1ccc(OC)c(CCNc2nccn(-c3ccc(C)c(C)c3)c2=O)c1	active: 25.1 µM	
CCOC(=O)c1c(/N=C/c2cccc([N+](=O)[O-])c2O)sc2c1CCC2	inconclusive: 44.7 µM [inhibitor, partial curve]	
O=C(N/N=C/C=C/c1ccccc1)c1ccncc1		inactive: 3.63%
O=C(NCC(c1cccnc1)N1CCOCC1)C(=O)Nc1ccc(F)cc1 (stereo not drawn)	inconclusive: 22.4 µM [inhibitor, full curve]	
Cc1ccccc1NC(=O)CN1C(=O)S/C(=C\c2cccn2-c2cccc(C(=O)O)c2)C1=O	active: 56.2 µM	
CCCCNc1ccc2c3c(cccc13)C(=O)N(CCCC)C2=O		inactive: 141%
CCCOc1ccc(Nc2cc(C)nc(C)n2)cc1	inconclusive: 50.1 µM [inhibitor, partial curve]	
NNc1nc(-c2ccccc2)c2cc(Br)ccc2n1	inconclusive: 11.2 µM [inhibitor, full curve, poor fit]	
Cn1c(N)c(C(=O)COC(=O)c2cc(-c3ccco3)nc3ccccc23)c(=O)n(Cc2ccccc2)c1=O	inconclusive: 44.7 µM [inhibitor, partial curve]	
COc1ccc2c(c1)c1c(c(=O)n(Cc3ccccc3)c(=O)n1CC(=O)Nc1c(C)cccc1C)n2C		inactive: 0.882%
CC(C)c1ccccc1OCCCN1CCCC1	inconclusive: 89.1 µM [inhibitor, single point]	
CCCc1c(C)[nH]c2ccc(C(=O)O)cc2c1=S	inconclusive: 79.4 µM [inhibitor, single point]	
